Reference: the supplement of paper PMC9588766
Where a name gives a salt, the structure may show the parent alone. ± gives the standard deviation of the averaged measurements. In all, about 2,000 compounds were measured (“cell viability relative to DMSO control (compound alone)”: median about 0.98, lowest 2% from about 0.23 on). The list shows a part of the results.

system: PDC-DUC18828; assay: cell viability relative to DMSO control (compound alone) (fraction); PDC-DUC18828 is a patient-derived cholangiocarcinoma cell line; higher = less growth inhibition; details: 1 µM; 72 h
Description: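 Selleck Bioactive library screen in the patient-derived FGFR2-G3BP2 fusion-positive ICC cell line PDC-DUC18828 (500 cells/well). Each compound was tested at 1 uM alone, in triplicate, for 72 h. Viability was read by CellTiter-Glo and normalised to plate DMSO controls.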

C[C@]12CC[C@@H]3c4ccc(O)cc4C[C@@H](CCCCCCCCC[S+]([O-])CCCC(F)(F)C(F)(F)F)[C@H]3[C@@H]1CC[C@@H]2O (stereo partly drawn) [Fulvestrant] and CCCCCCCCCCCCCCCC(=O)OC[C@H](O)[C@H]1OC(=O)C(O)=C1O [L-Ascorbyl 6-palmitate] are within error of each other in cell viability: 0.966 ± 0.05 for the first, 1.03 ± 0.043 for the second.

Compared with C=C[C@](C)(O)CC[C@@H]1[C@@]2(C)CCCC(C)(C)[C@@H]2CC[C@@]1(C)O [Sclareol], C=C[C@]1(C)C[C@@H](OC(=O)CSC(C)(C)CNC(=O)[C@H](N)C(C)C)[C@]2(C)[C@H](C)CC[C@]3(CCC(=O)[C@H]32)[C@@H](C)[C@@H]1O [Valnemulin HCl] is lower in cell viability: 1.08 ± 0.048 for the first, 0.959 ± 0.027 for the second.

Going from COC(=O)[C@H](Cc1ccccc1)NC(=O)[C@@H](N)CC(=O)O [Aspartame] to Cc1nc(C(=O)NCC(=O)O)c(O)c2ccc(Oc3ccccc3)cc12, the cell viability falls from 1.03 ± 0.055 to 0.877 ± 0.05.

First: CCS(=O)(=O)c1cccc(-c2cc(C(=O)NC3CCN(C)CC3)c(C)c3[nH]c4ncc(C)cc4c23)c1
Second: COc1ccc(Cl)cc1C(=O)NCCc1ccc(S(=O)(=O)NC(=O)NC2CCCCC2)cc1 [Glyburide]
The cell viability of the first is lower: 0.323 ± 0.03 for the first, 1.01 ± 0.023 for the second.

OCCn1cc(-c2ccc3c(c2)CC/C3=N\O)c(-c2ccncc2)n1 and Clc1ccc2c(c1)CCc1cccnc1C2=C1CCNCC1 [Desloratadine] are within error of each other in cell viability: 1.05 ± 0.075 for the first, 1.01 ± 0.078 for the second.

First: CN1CCc2nc(C(=O)N[C@@H]3C[C@@H](C(=O)N(C)C)CC[C@@H]3NC(=O)C(=O)Nc3ccc(Cl)cn3)sc2C1 [Edoxaban]
Second: NC(=O)Nc1cc(-c2cccc(F)c2)sc1C(=O)N[C@H]1CCCNC1
The cell viability of the first is higher: 1.01 ± 0.05 for the first, 0.524 ± 0.03 for the second.

CC[C@H]1OC(=O)[C@H](C)[C@@H](O[C@H]2C[C@@](C)(OC)[C@@H](O)[C@H](C)O2)[C@H](C)[C@@H](O[C@@H]2O[C@H](C)C[C@H](N(C)C)[C@H]2O)[C@](C)(O)C[C@@H](C)CN(C)[C@H](C)[C@@H](O)[C@]1(C)O [Azithromycin] and C[C@@H]1C/C=C/C=C/C=C/C=C/[C@H](O[C@@H]2O[C@H](C)[C@@H](O)[C@H](N)[C@@H]2O)C[C@@H]2O[C@](O)(C[C@@H](O)C[C@H]3O[C@@H]3/C=C/C(=O)O1)C[C@H](O)[C@H]2C(=O)O [Natamycin] are within error of each other in cell viability: 0.983 ± 0.016 for the first, 1.01 ± 0.049 for the second.

CN[C@H]1CC[C@@H](c2ccc(Cl)c(Cl)c2)c2ccccc21 [Sertraline HCl] and COc1cc(NC(=O)c2ccccn2)ccc1Cl are within error of each other in cell viability: 0.973 ± 0.02 for the first, 1.01 ± 0.035 for the second.

Nc1ccc(S(=O)(=O)Nc2nccs2)cc1 [Sulfathiazole] and Cc1cc(C)nc(NS(=O)(=O)c2ccc(N)cc2)n1 [Sulfamethazine] are within error of each other in cell viability: 0.913 ± 0.039 for the first, 0.948 ± 0.03 for the second.

Compared with O=C(O)c1cccc(-c2noc(-c3ccccc3F)n2)c1 [Ataluren (PTC124)], CC1=NN(c2ccc(C)c(C)c2)C(=O)/C1=N\Nc1cccc(-c2cccc(C(=O)O)c2)c1O [Eltrombopag Olamine] is higher in cell viability: 0.931 ± 0.054 for the first, 1.01 ± 0.018 for the second.

Cc1ccc(-c2cc(C(F)(F)F)nn2-c2ccc(S(N)(=O)=O)cc2)cc1 [Celecoxib] and NC[C@@](O)(c1ccc(Cl)cc1)c1ccc(-c2cn[nH]c2)cc1 are within error of each other in cell viability: 0.996 ± 0.018 for the first, 0.929 ± 0.098 for the second.

CC(C)[N+]1(C)[C@@H]2CC[C@H]1C[C@@H](OC(=O)C(CO)c1ccccc1)C2 (stereo partly drawn) [Ipratropium Bromide] and CC(C(O)c1ccc(O)cc1)N1CCC(Cc2ccccc2)CC1 (stereo not drawn) [Ifenprodil Tartrate] are within error of each other in cell viability: 1.03 ± 0.032 for the first, 0.983 ± 0.04 for the second.

Cc1c(-c2ccc(O)cc2)n(Cc2ccc(OCCN3CCCCCC3)cc2)c2ccc(O)cc12 [Bazedoxifene HCl] and CC(C)(C)c1cc(NC(=O)Nc2ccc(-c3cn4c(n3)sc3cc(OCCN5CCOCC5)ccc34)cc2)no1 [Quizartinib (AC220)] are within error of each other in cell viability: 1.06 ± 0.053 for the first, 1.05 ± 0.022 for the second.

Cc1c(-c2ccc(O)cc2)n(Cc2ccc(OCCN3CCCCCC3)cc2)c2ccc(O)cc12 [Bazedoxifene Acetate] and c1ccc(Cn2c(-c3ccc(OC[C@H](C4CCNCC4)n4c(-c5ccccc5)nc5ccccc54)cc3)nc3ccccc32)cc1 [Deltarasin] are within error of each other in cell viability: 0.995 ± 0.044 for the first, 0.992 ± 0.026 for the second.

Going from CCc1cc2c(cc1CC)CC(NC[C@H](O)c1ccc(O)c3[nH]c(=O)ccc13)C2 [Indacaterol Maleate] to CCc1cccc(CC)c1NC(=O)N1Cc2[nH]nc(NC(=O)c3ccc(N4CCN(C)CC4)cc3)c2C1, the cell viability falls from 0.891 ± 0.059 to 0.688 ± 0.012.

CCN(CC)CCNC(=O)c1ccc(N)cc1 [Procainamide HCl] and CCN(CC)CCOCCOC(=O)C1(c2ccccc2)CCCC1 [Pentoxyverine Citrate] are within error of each other in cell viability: 1.01 ± 0.049 for the first, 1.04 ± 0.018 for the second.

NC[C@H](O)c1ccc(O)c(O)c1 [Noradrenaline bitartrate monohydrate] and CC(C)N(CC[C@H](c1ccccc1)c1cc(CO)ccc1O)C(C)C are within error of each other in cell viability: 1.1 ± 0.044 for the first, 1.08 ± 0.032 for the second.

Going from CC(C=CC1(O)C(C)=CC(=O)CC1(C)C)=CC(=O)O (stereo not drawn) [Abscisic Acid (Dormin)] to CC1(C)O[C@@H]2C[C@H]3[C@@H]4C[C@H](F)C5=CC(=O)C=C[C@]5(C)[C@@]4(F)[C@@H](O)C[C@]3(C)[C@]2(C(=O)CO)O1 [Fluocinolone Acetonide], the cell viability falls from 1.02 ± 0.1 to 0.893 ± 0.02.

First: Cc1cc(C(C)(C)C)cc(C)c1CC1=NCCN1 [Xylometazoline HCl]
Second: COc1c(C)cnc(Cn2cnc3c(Cl)nc(N)nc32)c1C
The cell viability of the first is higher: 1.01 ± 0.032 for the first, 0.401 ± 0.04 for the second.

CCN(CC)C(=O)C1(c2ccccc2)CC1CN (stereo not drawn) [Milnacipran HCl] and O=C1NCC2(CCN(CCc3ccccc3)CC2)O1 [Fenspiride HCl] are within error of each other in cell viability: 0.999 ± 0.088 for the first, 1 ± 0.073 for the second.

CC#CCn1c(N2CCC[C@@H](N)C2)nc2c1c(=O)n(Cc1nc(C)c3ccccc3n1)c(=O)n2C [Linagliptin] and O=C(c1ccc(F)cc1)C1CCN(CCn2c(=O)[nH]c3ccccc3c2=O)CC1 [Ketanserin] are within error of each other in cell viability: 0.912 ± 0.057 for the first, 1.01 ± 0.049 for the second.

CNC(=O)c1ccc(N2C(=S)N(c3ccc(C#N)c(C(F)(F)F)c3)C(=O)C2(C)C)cc1F [Enzalutamide (MDV3100)] and CC(O)c1cc(C(=O)N[C@@H](C)Cn2ccc(-c3ccc(C#N)c(Cl)c3)n2)n[nH]1 (stereo partly drawn) are within error of each other in cell viability: 0.928 ± 0.033 for the first, 0.972 ± 0.099 for the second.

COc1cc(OC)c(NC(=O)Nc2cc(C)on2)cc1Cl and CCn1c(=O)c2c(nc(/C=C/c3ccc(OC)c(OC)c3)n2C)n(CC)c1=O [Istradefylline] are within error of each other in cell viability: 1.1 ± 0.017 for the first, 1.05 ± 0.051 for the second.

CCCc1ccc(OCC(=O)N(Cc2nc(-c3cccnc3)no2)C(C)C)cc1 and CC(C)(Oc1ccc(Cl)cc1)C(=O)OCCOC(=O)c1cccnc1 [Etofibrate] are within error of each other in cell viability: 1.04 ± 0.047 for the first, 0.997 ± 0.058 for the second.

Going from COc1cc2nc(N3CCN(C(=O)C4COc5ccccc5O4)CC3)nc(N)c2cc1OC (stereo not drawn) [Doxazosin Mesylate] to CC[C@@H]1C(=O)N(C)c2cnc(Nc3ccc(C(=O)N[C@H]4CC[C@H](N5CCN(CC6CC6)CC5)CC4)cc3OC)nc2N1C(C)C [Volasertib (BI 6727)], the cell viability falls from 0.948 ± 0.022 to 0.328 ± 0.035.

N#C/C(=C(/N)Sc1ccc(N)cc1)c1ccccc1C(F)(F)F and O=C(O)CCc1ccc(NCc2cccc(Oc3ccccc3)c2)cc1 are within error of each other in cell viability: 1.07 ± 0.029 for the first, 1.05 ± 0.067 for the second.

Compared with O=c1c(O)c(-c2ccc(O)cc2)oc2cc(O)cc(O)c12 [Kaempferol], C[C@H]1CO[C@@H]2Cn3cc(C(=O)NCc4ccc(F)cc4F)c(=O)c(O)c3C(=O)N12 is higher in cell viability: 0.934 ± 0.018 for the first, 1.06 ± 0.017 for the second.

First: O=C(/C=C/c1cccc(S(=O)(=O)Nc2ccccc2)c1)NO [Belinostat (PXD101)]
Second: CC1=NN(c2ccc(C)c(C)c2)C(=O)/C1=N\Nc1cccc(-c2cccc(C(=O)O)c2)c1O [Eltrombopag]
The cell viability of the first is lower: 0.393 ± 0.016 for the first, 1.04 ± 0.041 for the second.

First: CN1CCN2c3ncccc3Cc3ccccc3C2C1 (stereo not drawn) [Mirtazapine]
Second: Cc1csc(-c2nnc(Nc3ccc(Oc4ncccc4-c4ccnc(N)n4)cc3)c3ccccc23)c1
The cell viability of the first is higher: 0.9596 ± 0.0064 for the first, 0.623 ± 0.045 for the second.

CC[C@H](NC(=O)[C@H](C)NC)C(=O)N1C[C@@H](O)C[C@H]1Cc1c(-c2[nH]c3cc(F)ccc3c2C[C@@H]2C[C@H](O)CN2C(=O)[C@H](CC)NC(=O)[C@H](C)NC)[nH]c2cc(F)ccc12 [Birinapant] and COC(=O)N[C@@H](C)CNc1nccc(-c2cn(C(C)C)nc2-c2cc(Cl)cc(NS(C)(=O)=O)c2F)n1 are within error of each other in cell viability: 0.938 ± 0.077 for the first, 0.947 ± 0.03 for the second.

CC(C)[C@H](N)C(=O)OCCOCn1cnc2c(=O)nc(N)[nH]c21 [Valaciclovir HCl] and Nc1nc2c(ncn2COC(CO)CO)c(=O)[nH]1 [Ganciclovir] are within error of each other in cell viability: 1.03 ± 0.079 for the first, 0.9796 ± 0.0086 for the second.

COC(=O)C1=CO[C@@H](O)[C@@H]2C(CO)=CC[C@H]12 [Genipin] and Nc1nc(=O)n([C@@H]2CS[C@H](CO)O2)cc1F [Emtricitabine] are within error of each other in cell viability: 1.02 ± 0.1 for the first, 1.05 ± 0.016 for the second.

CCCCCCNC(=O)n1cc(F)c(=O)[nH]c1=O [Carmofur] and NCCCCCC(=O)O [(6-)ε-Aminocaproic acid] are within error of each other in cell viability: 0.941 ± 0.049 for the first, 0.997 ± 0.032 for the second.

Compared with CC#C[C@]1(O)CC[C@H]2[C@@H]3CCC4=CC(=O)CCC4=C3[C@@H](c3ccc(N(C)C)cc3)C[C@@]21C [Mifepristone], C[C@H]1[C@H](C)CC[C@]2(C(=O)O)CC[C@]3(C)C(=CC[C@@H]4[C@@]5(C)CC[C@H](O)C(C)(C)[C@@H]5CC[C@]43C)[C@H]12 [Ursolic Acid] is lower in cell viability: 1.03 ± 0.034 for the first, 0.954 ± 0.039 for the second.

CCS(=O)(=O)N1CC(CC#N)(n2cc(-c3ncnc4[nH]ccc34)cn2)C1 and COc1ccc2c(Oc3ccc(NC(=O)c4c(C)n(CC(C)(C)O)n(-c5ccccc5)c4=O)nc3)ccnc2c1 are within error of each other in cell viability: 1.02 ± 0.066 for the first, 0.9952 ± 0.0074 for the second.

Nc1nccc(Oc2ccc(NC(=O)c3c[nH]cc(-c4ccc(F)cc4)c3=O)cc2F)c1Cl and c1ccc2c(CCNc3ccc(Nc4ccncc4)cc3)c[nH]c2c1 are within error of each other in cell viability: 0.997 ± 0.052 for the first, 0.931 ± 0.024 for the second.

Compound CC(C)CCNC(=O)[C@H](CC(C)C)NC(=O)[C@H]1O[C@@H]1C(=O)O [Loxistatin Acid (E-64C)] has a cell viability of 1.07 ± 0.03.
